Experimental data as given in ChEMBL document CHEMBL1154674, “Synthesis and evaluation of three 18F-labeled aminophenylbenzothiazoles as amyloid imaging agents” (J Med Chem, 2009).
Further values from the same series stand in other lists.

What was measured:
Assay type in all cases: ADME, organism-based, Macaca mulatta
[1] = Drug level in normal rhesus monkey parietal cortex assessed as standard uptake value at 152.9 MBq, iv after 1.5 mins by microPET; conditions: in vivo, 0.025 h
[2] = Drug level in normal rhesus monkey thalamus assessed as standard uptake value at 152.9 MBq, iv after 52.5 mins by microPET; conditions: in vivo, 0.875 h
[3] = Drug level in normal rhesus monkey white matter assessed as standard uptake value at 152.9 MBq, iv after 65 mins by microPET; conditions: in vivo
[4] = Drug level in normal rhesus monkey parietal cortex assessed as standard uptake value at 152.9 MBq, iv after 85 mins by microPET; conditions: in vivo
[5] = Drug level in normal rhesus monkey frontal cortex assessed as standard uptake value at 152.9 MBq, iv after 75 mins by microPET; conditions: in vivo, 1.25 h
[6] = Drug level in normal rhesus monkey pons assessed as standard uptake value at 152.9 MBq, iv after 52.5 mins by microPET; conditions: in vivo, 0.875 h
[7] = Drug level in normal rhesus monkey parietal cortex assessed as standard uptake value at 152.9 MBq, iv after 37.5 mins by microPET; conditions: in vivo, 0.625 h
[8] = Drug level in normal rhesus monkey frontal cortex assessed as standard uptake value at 152.9 MBq, iv after 52.5 mins by microPET; conditions: in vivo, 0.875 h
[9] = Drug level in normal rhesus monkey frontal cortex assessed as standard uptake value at 152.9 MBq, iv after 0.5 mins by microPET; conditions: in vivo
[10] = Drug level in normal rhesus monkey frontal cortex assessed as standard uptake value at 152.9 MBq, iv after 32.5 mins by microPET; conditions: in vivo
[11] = Drug level in normal rhesus monkey pons assessed as standard uptake value at 152.9 MBq, iv after 47.5 mins by microPET; conditions: in vivo
[12] = Drug level in normal rhesus monkey parietal cortex assessed as standard uptake value at 152.9 MBq, iv after 14 mins by microPET; conditions: in vivo
[13] = Drug level in normal rhesus monkey frontal cortex assessed as standard uptake value at 152.9 MBq, iv after 47.5 mins by microPET; conditions: in vivo
[14] = Drug level in normal rhesus monkey white matter assessed as standard uptake value at 152.9 MBq, iv after 10 mins by microPET; conditions: in vivo

Compound: [11CH3]Nc1ccc(-c2nc3ccc(O)cc3s2)cc1 [PITTSBURGH COMPOUND B]
- SUV [1]: 0.467
- SUV [2]: 1.065
- SUV [3]: 0.867
- SUV [4]: 0.596
- SUV [5]: 0.658
- SUV [6]: 1.023
- SUV [7]: 0.99
- SUV [8]: 0.74
- SUV [9]: 0.043
- SUV [10]: 1.06
- SUV [11]: 1.17
- SUV [12]: 1.925
- SUV [13]: 0.774
- SUV [14]: 1.564
